# The list shows a part of the results.
# How the values were obtained:
# Assay in all cases: glycan array binding signal (z-score within array); higher = stronger binding
# Details in all cases: glycan notation: IUPAC condensed, linker removed
# Fuc(a1-2)Gal = target: Fuc(a1-2)Gal
# How it was run: (§1)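 Glycan array data were curated from 3228 arrays in the Consortium for Functional Glycomics database and kept only where the protein sequence was available. Glycan names were converted to IUPAC-condensed notation, and columns mapping to the same glycan were averaged. The binding signal is a within-array Z-score, averaged across arrays of the same protein sequence at different concentrations or buffers and across linkers. Negative Z-scores can be read as non-binding.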
# Fuc(a1-2)Gal(b1-3)GalNAc = target: Fuc(a1-2)Gal(b1-3)GalNAc
# How it was run: as §1
# [1] = target: Fuc(a1-2)Gal(b1-3)GalNAc(b1-3)Gal
# How it was run: as §1
# [2] = target: Fuc(a1-2)Gal(b1-3)GalNAc(b1-3)Gal(a1-4)Gal(b1-4)Glc
# How it was run: as §1
# [3] = target: Fuc(a1-2)Gal(b1-3)GalNAc(b1-4)[Neu5Ac(a2-3)]Gal(b1-4)Glc
# How it was run: as §1
# Fuc(a1-2)Gal(b1-3)GlcNAc = target: Fuc(a1-2)Gal(b1-3)GlcNAc
# How it was run: as §1
# [4] = target: Fuc(a1-2)Gal(b1-3)GlcNAc(b1-3)Gal(b1-4)Glc
# How it was run: as §1
# [5] = target: Fuc(a1-2)Gal(b1-3)[Fuc(a1-4)]GlcNAc
# How it was run: as §1
# Fuc(a1-2)Gal(b1-4)Glc = target: Fuc(a1-2)Gal(b1-4)Glc
# How it was run: as §1
# Fuc(a1-2)Gal(b1-4)Glc6S = target: Fuc(a1-2)Gal(b1-4)Glc6S
# How it was run: as §1
# Fuc(a1-2)Gal(b1-4)GlcNAc = target: Fuc(a1-2)Gal(b1-4)GlcNAc
# How it was run: as §1
# [6] = target: Fuc(a1-2)Gal(b1-4)GlcNAc(b1-3)Gal(b1-4)GlcNAc
# How it was run: as §1
# [7] = target: Fuc(a1-2)Gal(b1-4)GlcNAc(b1-3)Gal(b1-4)GlcNAc(b1-3)Gal(b1-4)GlcNAc
# How it was run: as §1
# [8] = target: Fuc(a1-2)Gal(b1-4)GlcNAc6S
# How it was run: as §1
# [9] = target: Fuc(a1-2)Gal(b1-4)[Fuc(a1-3)]GlcNAc
# How it was run: as §1
# [10] = target: Fuc(a1-2)Gal(b1-4)[Fuc(a1-3)]GlcNAc(b1-3)Gal(b1-4)[Fuc(a1-3)]GlcNAc
# How it was run: as §1
# [11] = target: Fuc(a1-2)Gal(b1-4)[Fuc(a1-3)]GlcNAc(b1-3)Gal(b1-4)[Fuc(a1-3)]GlcNAc(b1-3)Gal(b1-4)[Fuc(a1-3)]GlcNAc
# How it was run: as §1
# Fuc(a1-2)Gal6S(b1-4)Glc = target: Fuc(a1-2)Gal6S(b1-4)Glc
# How it was run: as §1
# [12] = target: Fuc(a1-2)Gal6S(b1-4)Glc6S
# How it was run: as §1
# [13] = target: Fuc(a1-2)Gal6S(b1-4)GlcNAc
# How it was run: as §1
# Fuc(a1-2)[Gal(a1-3)]Gal = target: Fuc(a1-2)[Gal(a1-3)]Gal
# How it was run: as §1
# [14] = target: Fuc(a1-2)[Gal(a1-3)]Gal(b1-3)GlcNAc
# How it was run: as §1
# [15] = target: Fuc(a1-2)[Gal(a1-3)]Gal(b1-4)Glc
# How it was run: as §1
# [16] = target: Fuc(a1-2)[Gal(a1-3)]Gal(b1-4)GlcNAc
# How it was run: as §1
# [17] = target: Fuc(a1-2)[Gal(a1-3)]Gal(b1-4)[Fuc(a1-3)]GlcNAc
# How it was run: as §1
# [18] = target: Fuc(a1-2)[Gal(a1-4)]Gal(b1-4)GlcNAc
# How it was run: as §1
# [19] = target: Fuc(a1-2)[GalNAc(a1-3)]Gal
# How it was run: as §1
# [20] = target: Fuc(a1-2)[GalNAc(a1-3)]Gal(b1-3)GlcNAc
# How it was run: as §1
# [21] = target: Fuc(a1-2)[GalNAc(a1-3)]Gal(b1-4)Glc
# How it was run: as §1
# [22] = target: Fuc(a1-2)[GalNAc(a1-3)]Gal(b1-4)GlcNAc
# How it was run: as §1
binder,measurement,setting,value
HFR-1 (Triticum aestivum) (protein) MSPQSFTLETTTTTPAAKGSDPSYFQSAPACHEMIQHKELLLHLYAYQNVQKTPDANQAVIVESKRPECFGILAANDWTVYDGPAHNANLVAHAQGLHLGASMAKENWFICFNMVFVNQRFTGSSFKVMGDFQGTAHNGEWAIVGGTGEFAYAQGVIAFKKTQQSERNARMELHVRAMCLSFLRPLLSLGDGSAVAKIGPWGKMSGELLDIPSTPQRLERITIRHGVVIDSLAFSFIDKAGEPYNVGPWGGRRGDNKDTIELAPSEIVTEVSGTVGIFAEDNVEYNAIASLTITTNHRPYGPFGETQSTPFSVPVQDNNNIVGFFACAGKYVEALGVYVRSPVST,glycan array binding signal (z-score),Fuc(a1-2)Gal,-0.129
same,glycan array binding signal (z-score),Fuc(a1-2)Gal(b1-3)GalNAc,-0.223
same,glycan array binding signal (z-score),[1],-0.186
same,glycan array binding signal (z-score),[2],-0.113
same,glycan array binding signal (z-score),[3],-0.215
same,glycan array binding signal (z-score),Fuc(a1-2)Gal(b1-3)GlcNAc,-0.211
same,glycan array binding signal (z-score),[4],0.059
same,glycan array binding signal (z-score),[5],-0.201
same,glycan array binding signal (z-score),Fuc(a1-2)Gal(b1-4)Glc,-0.132
same,glycan array binding signal (z-score),Fuc(a1-2)Gal(b1-4)Glc6S,-0.212
same,glycan array binding signal (z-score),Fuc(a1-2)Gal(b1-4)GlcNAc,-0.204
same,glycan array binding signal (z-score),[6],-0.206
same,glycan array binding signal (z-score),[7],-0.22
same,glycan array binding signal (z-score),[8],-0.21
same,glycan array binding signal (z-score),[9],-0.213
same,glycan array binding signal (z-score),[10],0.009
same,glycan array binding signal (z-score),[11],-0.203
same,glycan array binding signal (z-score),Fuc(a1-2)Gal6S(b1-4)Glc,-0.2
same,glycan array binding signal (z-score),[12],-0.128
same,glycan array binding signal (z-score),[13],-0.21
same,glycan array binding signal (z-score),Fuc(a1-2)[Gal(a1-3)]Gal,-0.171
same,glycan array binding signal (z-score),[14],-0.188
same,glycan array binding signal (z-score),[15],0.715
same,glycan array binding signal (z-score),[16],-0.178
same,glycan array binding signal (z-score),[17],-0.225
same,glycan array binding signal (z-score),[18],-0.222
same,glycan array binding signal (z-score),[19],-0.225
same,glycan array binding signal (z-score),[20],-0.105
same,glycan array binding signal (z-score),[21],-0.226
same,glycan array binding signal (z-score),[22],-0.225

# — the supplement of paper PMC8728848
